In all, about 340,000 compounds went through this assay and about 6,900 (2%) were called active. No stated cut-off is given here; in the data, active means inhibition above about 30%; inactive means below that, where a call was filed. This is a selection; strong and weak results do not stand in their true shares. Where no call is shown, the source filed none.
target: D(2) dopamine receptor (Homo sapiens) (UniProt P14416); assay: HTS Assay for Allosteric Antagonists of the Human D2 Dopamine Receptor: Primary Screen for Antagonists; conditions: HEK293 TREx D2 cells, calcium flux, dopamine EC80; at 10 µM; stronger effect = higher value; further: 0% is about no effect
Summary of the method: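 Compounds are added to dye-loaded, induced HEK293 T-REx cells coupled to calcium release via D2; after a 3 min kinetic read an EC80 dopamine stimulus is given and fluorescence is recorded for 3 more min.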

Sequence of UniProt P14416 (P14416 whole entry, looked up): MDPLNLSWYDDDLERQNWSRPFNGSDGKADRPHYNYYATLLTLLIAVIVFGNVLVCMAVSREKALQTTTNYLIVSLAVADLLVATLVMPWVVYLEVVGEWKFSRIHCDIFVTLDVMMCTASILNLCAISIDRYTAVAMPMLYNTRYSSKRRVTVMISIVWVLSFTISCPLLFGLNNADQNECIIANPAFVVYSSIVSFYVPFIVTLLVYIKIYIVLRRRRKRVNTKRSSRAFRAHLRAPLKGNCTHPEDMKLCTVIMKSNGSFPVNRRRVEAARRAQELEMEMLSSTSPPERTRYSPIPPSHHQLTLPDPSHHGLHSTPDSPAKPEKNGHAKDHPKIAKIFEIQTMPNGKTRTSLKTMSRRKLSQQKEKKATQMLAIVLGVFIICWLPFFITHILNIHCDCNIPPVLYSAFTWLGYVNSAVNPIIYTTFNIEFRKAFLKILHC

Row | SMILES | inhibition
1 | Cc1cccc(-n2c3nc(=O)n(C)c(=O)c-3cc3c(Cl)cccc32)c1C | 14.2%
2 | CC(C)CCNC(=O)CSCc1cnn(-c2ccccc2)c1-n1cccc1 | 24.1%
3 | CCc1nc(SCC(=O)Nc2ccc(NC(C)=O)cc2)n[nH]1 | -4.98%
4 | CC(=O)c1ccc(NC(=O)CCn2nc(C)c(S(=O)(=O)N3CCC(C)CC3)c2C)cc1 | 9.42%
5 | COc1ccccc1N1CCN(CC(=O)Nc2cccc(F)c2)CC1 | active: 31.3%
6 | O=C(CCN1CCN(c2ccccc2)CC1)Nc1ccc(OCc2ccccc2)cc1 | active: 65%
7 | Cn1cc(S(=O)(=O)c2ccccc2)c(=O)c2cc(F)c(N3CCCCC3)cc21 | -5.21%
8 | Cc1noc2nc(C(=O)O)nc(N3CCCCC3)c12 | 7.93%
9 | COc1ccc(OC)c(-c2noc(CSc3nnc(Cc4ccccc4)n3-c3cccc(C)c3)n2)c1 | -2.22%
10 | COc1cccc(N2CC(NC(=O)COc3ccc4ccccc4c3)CC2=O)c1 (centres undefined) | -15.6%
11 | CCc1nnc(SCC(=O)Nc2cc(Cl)c(OC)cc2OC)c2cc3oc(C)cc3n12 | -3.68%
12 | COc1ccc(-c2noc(CN3CCN(c4ccccc4OC)CC3)n2)cc1OC | -5.25%
13 | O=C(Cn1c(=S)[nH]c2ccccc2c1=O)N1CCN(c2ccccc2)CC1 | active: 30.9%
14 | CC(=O)Nc1ccc(S(=O)(=O)NC2(C(F)(F)F)NC(=O)N(c3ccc(Cl)cc3)C2=O)cc1 (centres undefined) | -7.24%
15 | COC(=O)c1c(C)sc(-c2c(-c3cccc(OC)c3)[nH]c3c2c(=O)[nH]c(=O)n3C)c1O | 2.32%
16 | COc1ccc(C(=O)N2CCc3cc(OC)c(OC)cc3C2COc2ccccc2OC)cc1 (centres undefined) | 4.43%
17 | COc1ccc(C)c2sc(N(Cc3cccnc3)C(=O)CCc3ccccc3)nc12 | 9.69%
18 | CCCn1c(=O)c2sccc2n2c(CCCC(=O)Nc3ccc(C)c(F)c3)nnc12 | -13.4%
19 | Cc1ccc(-c2ccc(=O)n(CC(=O)Nc3ccc(F)c(Cl)c3)n2)cc1C | 13.6%
20 | CCOc1ccc(CCNc2nc3c(-c4ccc(C)cc4)nnn3c3ccccc23)cc1OCC | -1.96%
21 | COc1cccc(NC(=O)CSC2=Nc3ccccc3C3=NC(CCC(=O)NCc4ccco4)C(=O)N23)c1 (centres undefined) | -4.38%
22 | CCOc1ccccc1C(=O)Nc1ccc(S(=O)(=O)N2CCCCC2c2cccnc2)cc1 (centres undefined) | 25.7%
23 | COc1ccccc1C(=O)Nc1nnc(S(=O)(=O)N2CCCCCC2)s1 | 7.76%
24 | COc1ccc(-c2nc(CNS(=O)(=O)c3ccc(C)cc3)cs2)cc1 | -3.33%

Row | SMILES | inhibition
25 | Cc1ccc(-c2cc(C(=O)N(Cc3ccccc3)Cc3ccco3)no2)cc1F | 0.824%
26 | Cc1cccc(NC(=O)CN(C)S(=O)(=O)c2ccc3c(c2)c(=O)n(C)c(=O)n3C)c1 | -2.59%
27 | CC1CCCCN1CC(=O)N1CCCc2c1c(=O)oc1ccc(OCc3ccccc3)cc21 (centres undefined) | 0.584%
28 | O=C(NCCS(=O)(=O)N1CCN(c2ccccc2)CC1)C1CC(=O)N(c2ccccc2)C1 (centres undefined) | -2.36%
29 | COc1ccccc1C(=O)Nc1ccc(-c2nc3ccccc3s2)c(C)c1 | -4.92%
30 | CC(C(=O)N1CCN(Cc2ccccc2)CC1)n1ncn2cccc2c1=O (centres undefined) | active: 48.5%
31 | O=C(NCc1ccccc1Cl)c1ccc(NC(=O)N2CCCCc3ccccc32)cc1 | -21%
32 | CCOc1ccc(NC(=O)CSC2=Nc3ccccc3C3=NC(CC(=O)NCc4ccc5c(c4)OCO5)C(=O)N23)cc1 (centres undefined) | 3.85%
33 | Cc1ccc(S(=O)(=O)c2c(Nc3cccc(Cl)c3)sc(C(=O)c3ccc4c(c3)OCO4)c2N)cc1 | 15%
34 | O=C(OCc1cc(=O)n2c3c(sc2n1)CCCC3)c1cccc(NC(=O)c2ccccc2F)c1 | -15.4%
35 | COc1cc(C)ccc1OCCSc1nnc(-c2ccc(C)cc2)o1 | -15.6%
36 | Cc1ccc(C(=O)c2oc3ccccc3c2NC(=O)Cc2coc3c(C)c(C)ccc23)cc1 | -21.7%
37 | COC(=O)c1[nH]c2cccc(C)c2c1NC(=O)CN1CCN(c2ccccc2OC)CC1 | active: 54.4%
38 | Cc1ccc(-c2nnc(Nc3ccc(O)cc3)c3ccccc23)cc1S(=O)(=O)NCc1nc2ccccc2[nH]1 | 9.26%
39 | COc1cc(NC(=O)CSc2nc(C)c(C(=O)Nc3ccccc3)c(-c3ccc(OC)c(OC)c3)c2C#N)c(OC)cc1Cl | 1.48%
40 | CC(C)CN(CCCNC(=O)CN1C(=O)COc2ccc(S(=O)(=O)N3CCCCCC3)cc21)CC(C)C | 7.16%
41 | O=C1CC(=O)Nc2cc(S(=O)(=O)N3CCOc4ccccc43)ccc2N1 | -3.99%
42 | Cc1ccc(Cl)cc1N1CCN(CCCNc2ncnc3onc(-c4ccc(F)cc4)c23)CC1 | 8.56%
43 | COc1ccc(N2CC3=C(C2=O)C(c2ccc(Br)cc2)NC(=O)N3C)cc1 (centres undefined) | -18.7%
44 | COc1ccc(N(C(=O)COc2c(C)cccc2C)S(=O)(=O)c2ccc(Cl)cc2)cc1 | -3.27%
45 | Cc1cccc(N2CCN(S(=O)(=O)c3ccc4oc(=O)c5ncn(C)c5c4c3)CC2C)c1 (centres undefined) | 2.03%
46 | COC(=O)c1ccccc1NC(=O)c1cc2nc(-c3ccccc3)cc(-c3ccccc3)n2n1 | 2.28%
47 | Fc1ccccc1N1CCN(CCCc2ccccc2)CC1 | active: 74%
48 | Cc1ccccc1C(=O)NCC(c1cccnc1)N1CCc2ccccc21 (centres undefined) | -18.3%

Row | SMILES | inhibition
49 | CCOC(=O)c1c(C)sc(-c2c(-c3ccc4c(c3)OCCO4)[nH]c3c2c(=O)[nH]c(=O)n3C)c1O | -4.81%
50 | COc1ccc(NC(=O)C2(c3cccs3)CCOCC2)cc1Cl | -15.5%
51 | COC(=O)c1ccc(CN2CCC(CO)(Cc3cccc(OC)c3)CC2)cc1 | active: 37%
52 | N=c1c(C(=O)NCc2ccco2)cc2c(=O)n3ccccc3nc2n1Cc1ccccc1 | active: 37.8%
53 | O=C(CSc1nncn2c1cc1sccc12)Nc1ccccc1C(F)(F)F | 5.59%
54 | O=C(NCCC1=CCCCC1)c1ccc2c(c1)N(Cc1ccc(F)cc1)C(=O)c1ccccc1S2(=O)=O | -20.6%
55 | Cc1c(NC(=O)c2cc(-c3cccc(Cl)c3)on2)c(=O)n(-c2ccccc2)n1C | 9.19%
56 | COc1ccc2nc3sc(C(=O)Nc4cc(Cl)c(OC)cc4OC)cc3cc2c1 | -15.2%
57 | CCN1CCN(Cc2c(O)ccc3c(=O)c(Oc4ccccc4Cl)c(C(F)(F)F)oc23)CC1 | 17.1%
58 | CCOC(=O)c1c(C)oc2nc(C)nc(NCc3ccc(C)cc3)c12 | 0.94%
59 | Cc1cccc(NC(=S)NC2CC3CCC(C2)N3Cc2ccco2)c1 (centres undefined) | active: 38.8%
60 | CCOCCCn1c(=N)c(C(=O)NCc2ccco2)cc2c(=O)n3ccccc3nc21 | -19.2%
61 | COCCCNc1nc2c(-c3ccccc3)nnn2c2ccccc12 | -13.1%
62 | Cn1c(CCN2CCN(c3ccccn3)CC2)nc2cc(NC(=O)COc3ccc(Cl)cc3)ccc21 | active: 37.5%
63 | CC(C)NC(=O)c1ccc(Cn2c(=O)c3cccn3c3cccnc32)cc1 | -1.88%
64 | COc1ccccc1C1CCN(Cc2cccc([N+](=O)[O-])c2)CC1 | active: 110%
65 | COc1ccc(CC(=O)NC2CC(=O)N(c3ccc4c(c3)OCCO4)C2)cc1 (centres undefined) | 4.36%
66 | Nc1c(C(=O)Nc2cccc(Cl)c2)sc2nc3c(cc12)CN(Cc1ccccc1)CC3 | 2.02%
67 | CCOCCCn1c(=N)c(S(=O)(=O)c2ccc(C)cc2)cc2c(=O)n3ccccc3nc21 | -6.42%
68 | CCOC(=O)c1c(NC(=O)C(C)Sc2cn(CCNC(=O)c3ccc(OC)c(OC)c3)c3ccccc23)sc2c1CCC2 (centres undefined) | 9.41%
69 | CCn1cc(C(=O)NCc2ccccc2)c(=O)c2cc(S(=O)(=O)N3CCCCC3)ccc21 | -4.76%
70 | Cc1ccc(NS(=O)(=O)c2ccc3c4c(cccc24)C(=O)N3)c(C)c1 | 0.721%
71 | Cc1cccc(-c2nc3c4ccccc4nc(NCc4ccccc4Cl)n3n2)c1 | -9.98%
72 | Cc1ccc(C(NC(=O)Cc2cccs2)C(=O)Nc2ccc(C(C)C)cc2)cc1 (centres undefined) | 3.65%

Row | SMILES | inhibition
73 | Cc1cc(Nc2cccc(C(F)(F)F)c2)ncn1 | -15.8%
74 | O=C(COc1ccccc1)N(Cc1cccnc1)c1nc2ccc(Cl)cc2s1 | 18.4%
75 | O=C(Nc1ccc(N2CCC(N3CCCCC3)CC2)c(C(=O)O)c1)c1ccccc1 | 11%
76 | CNS(=O)(=O)c1cn(CC(=O)N2CCN(c3ccc(OC)cc3)CC2)cc1S(=O)(=O)NC | 7.41%
77 | Cc1cc(C)cc(NC(=O)CN2C(=O)COc3ccc(S(=O)(=O)Nc4ccccc4)cc32)c1 | -3.56%
78 | Cc1cn(C)c(CC(=O)NCc2ccc(F)cc2)c1C(=O)O | -10.1%
79 | COc1ccc2c(c1)c1c(c(=O)n(-c3cccc(C)c3)c(=O)n1CC(=O)Nc1c(C)cc(C)cc1C)n2C | -4.46%
80 | C=CCn1c(O)c(N=NC(=S)Nc2ccccc2F)c2ccccc21 | active: 68.3%
81 | CCN1CCN(Cc2c(O)ccc3oc(C)c(C(=O)Nc4ccc(OC)c(Cl)c4)c23)CC1 | -5.46%
82 | CCOC(=O)c1ccccc1NC(=O)CSc1nc2ncccc2o1 | 8.24%
83 | CC1=C(c2ccc(C)cc2)S(=O)(=O)N=C1N1CCN(c2ccccc2)CC1 | -0.0404%
84 | Cc1ccc2nc(-c3ccncc3)c(Nc3ccccc3C)n2c1 | 6.44%
85 | OCCNCCOCCOc1ccccc1-c1ccccc1 | active: 33.1%
86 | Cc1ccc(CSC2=Nc3ccccc3C3=NC(CC(=O)NC4CCCCC4)C(=O)N23)c(C)c1 (centres undefined) | 8.86%
87 | CCC(C)NC(=O)c1cn(CC)c2ccc(S(=O)(=O)N3CCCCC3)cc2c1=O (centres undefined) | 9.2%
88 | c1ccc(COc2ccc(CN3CCN(c4ccccn4)CC3)cc2)cc1 | active: 75.5%
89 | CSCCC(NS(=O)(=O)c1ccc2c(c1)oc(=O)n2C)C(=O)N1CCN(c2cc(Cl)ccc2C)CC1 (centres undefined) | 9.82%
90 | CCN(CCCNC(=O)c1cc2cc3cc(OC)ccc3nc2s1)c1cccc(C)c1 | 7.28%
91 | CCC(=O)Oc1c(Sc2ccc(Cl)cc2)c(C)nn1C(C)(C)C | -3.04%
92 | Cc1cc2c(cc3c(SCc4ccc(Cl)cc4)nnc(C)n32)o1 | -11.7%
93 | Cc1cccc(N2CCN(C(=O)c3nn(C)c4c3CSc3ccccc3-4)CC2C)c1 (centres undefined) | -17.8%
94 | C=CCN(c1ccccc1)S(=O)(=O)c1cccc(C(=O)NCC(c2ccc(OC)cc2)N2CCCCC2)c1 (centres undefined) | active: 54.7%

— PubChem BioAssay AID485344 (National Center for Advancing Translational Sciences (NCATS), 2010)
